Test results as given in article PMC3307775.
No constants are given. Whether binding was seen depends on the method and setting. For some assays here: Binding seen in cells or lysates may run through a third protein. Some binding calls cover weakened binding; strength is not graded here.

Sequences of proteins named here, by UniProt entry; tags and fusion partners are left off. A change or cut given only in a name is not applied to a line headed by its entry. A line that says so, or that is headed by a name, gives the form on record, which may keep a tag or linker. Residues count along the entry.
Human full-length FGFR1βIIIC on T-Rex 293 cells (without KLB) (P11362, form named): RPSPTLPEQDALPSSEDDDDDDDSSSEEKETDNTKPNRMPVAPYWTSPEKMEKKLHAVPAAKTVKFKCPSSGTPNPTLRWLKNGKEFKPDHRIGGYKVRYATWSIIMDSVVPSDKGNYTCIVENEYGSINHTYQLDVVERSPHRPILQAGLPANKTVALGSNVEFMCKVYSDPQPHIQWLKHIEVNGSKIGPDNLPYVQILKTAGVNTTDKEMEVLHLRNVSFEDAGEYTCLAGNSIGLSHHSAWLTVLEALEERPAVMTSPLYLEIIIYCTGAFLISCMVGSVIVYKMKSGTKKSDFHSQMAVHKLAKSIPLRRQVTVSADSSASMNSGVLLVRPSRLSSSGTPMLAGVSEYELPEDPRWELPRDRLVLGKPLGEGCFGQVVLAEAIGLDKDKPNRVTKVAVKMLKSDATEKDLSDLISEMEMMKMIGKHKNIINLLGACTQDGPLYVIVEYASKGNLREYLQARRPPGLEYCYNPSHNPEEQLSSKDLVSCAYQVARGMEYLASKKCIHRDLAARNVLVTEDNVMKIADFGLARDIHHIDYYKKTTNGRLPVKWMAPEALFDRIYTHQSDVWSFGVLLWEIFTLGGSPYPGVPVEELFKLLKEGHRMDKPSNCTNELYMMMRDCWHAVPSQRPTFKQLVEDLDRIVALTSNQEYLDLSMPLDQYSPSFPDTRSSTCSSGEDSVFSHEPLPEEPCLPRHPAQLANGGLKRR
UniProt P22455, residues 22-802: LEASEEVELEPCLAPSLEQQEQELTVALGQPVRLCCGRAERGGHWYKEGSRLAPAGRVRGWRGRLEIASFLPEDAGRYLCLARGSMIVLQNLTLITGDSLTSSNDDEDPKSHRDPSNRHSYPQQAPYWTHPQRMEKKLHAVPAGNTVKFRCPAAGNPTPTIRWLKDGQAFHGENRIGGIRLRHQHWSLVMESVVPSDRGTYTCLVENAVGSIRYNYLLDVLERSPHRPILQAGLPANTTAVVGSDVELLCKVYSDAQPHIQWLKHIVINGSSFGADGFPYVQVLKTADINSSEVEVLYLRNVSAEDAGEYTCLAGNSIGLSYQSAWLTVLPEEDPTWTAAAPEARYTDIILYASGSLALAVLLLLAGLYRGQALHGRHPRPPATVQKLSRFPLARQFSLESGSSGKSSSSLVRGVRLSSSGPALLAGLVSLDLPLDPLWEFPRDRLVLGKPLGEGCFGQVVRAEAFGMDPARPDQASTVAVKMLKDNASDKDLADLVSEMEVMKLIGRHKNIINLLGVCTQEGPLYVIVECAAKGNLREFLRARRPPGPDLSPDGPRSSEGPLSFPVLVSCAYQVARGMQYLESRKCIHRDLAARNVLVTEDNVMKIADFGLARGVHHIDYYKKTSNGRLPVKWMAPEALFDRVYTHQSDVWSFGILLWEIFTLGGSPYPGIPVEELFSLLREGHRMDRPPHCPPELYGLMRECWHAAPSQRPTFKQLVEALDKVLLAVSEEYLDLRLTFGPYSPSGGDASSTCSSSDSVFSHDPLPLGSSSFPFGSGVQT
UniProt O95750, residues 25-216: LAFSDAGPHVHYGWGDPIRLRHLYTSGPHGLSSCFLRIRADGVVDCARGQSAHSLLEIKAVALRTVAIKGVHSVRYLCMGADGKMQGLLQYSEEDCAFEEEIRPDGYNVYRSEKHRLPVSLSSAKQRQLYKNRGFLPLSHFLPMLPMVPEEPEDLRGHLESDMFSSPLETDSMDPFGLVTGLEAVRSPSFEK

What was measured:
[1] = biological target: T1, FGFR1-KLB complex on T-Rex 293 cells (inducible human FGFR1βIIIC and constitutive murine KLB) (human | murine) (UniProt P11362+Q99N32); test: cross-linking; covalent affinity chemical cross-linking of ^125I-FGF19 bound to the surface of T-Rex 293 cells; only the binder purified
[2] = biological target: Human full-length FGFR4 on T-Rex 293 cells (without KLB) (human) (UniProt P22455); test: radioligand binding; dose-dependent competition: graded concentrations of unlabeled FGF21, FGF19 or FGF1 with 2 ng/ml ^125I-FGF19 on T-Rex 293 cells expressing FGFR1-KLB, FGFR4-KLB, KLB alone or FGFR4 alone; only the binder purified
[3] = biological target: T2, Murine betaKlotho (KLB) on T-Rex 293 cells (without transfected FGFR) (murine) (UniProt Q99N32); test: as above
T2 sequence: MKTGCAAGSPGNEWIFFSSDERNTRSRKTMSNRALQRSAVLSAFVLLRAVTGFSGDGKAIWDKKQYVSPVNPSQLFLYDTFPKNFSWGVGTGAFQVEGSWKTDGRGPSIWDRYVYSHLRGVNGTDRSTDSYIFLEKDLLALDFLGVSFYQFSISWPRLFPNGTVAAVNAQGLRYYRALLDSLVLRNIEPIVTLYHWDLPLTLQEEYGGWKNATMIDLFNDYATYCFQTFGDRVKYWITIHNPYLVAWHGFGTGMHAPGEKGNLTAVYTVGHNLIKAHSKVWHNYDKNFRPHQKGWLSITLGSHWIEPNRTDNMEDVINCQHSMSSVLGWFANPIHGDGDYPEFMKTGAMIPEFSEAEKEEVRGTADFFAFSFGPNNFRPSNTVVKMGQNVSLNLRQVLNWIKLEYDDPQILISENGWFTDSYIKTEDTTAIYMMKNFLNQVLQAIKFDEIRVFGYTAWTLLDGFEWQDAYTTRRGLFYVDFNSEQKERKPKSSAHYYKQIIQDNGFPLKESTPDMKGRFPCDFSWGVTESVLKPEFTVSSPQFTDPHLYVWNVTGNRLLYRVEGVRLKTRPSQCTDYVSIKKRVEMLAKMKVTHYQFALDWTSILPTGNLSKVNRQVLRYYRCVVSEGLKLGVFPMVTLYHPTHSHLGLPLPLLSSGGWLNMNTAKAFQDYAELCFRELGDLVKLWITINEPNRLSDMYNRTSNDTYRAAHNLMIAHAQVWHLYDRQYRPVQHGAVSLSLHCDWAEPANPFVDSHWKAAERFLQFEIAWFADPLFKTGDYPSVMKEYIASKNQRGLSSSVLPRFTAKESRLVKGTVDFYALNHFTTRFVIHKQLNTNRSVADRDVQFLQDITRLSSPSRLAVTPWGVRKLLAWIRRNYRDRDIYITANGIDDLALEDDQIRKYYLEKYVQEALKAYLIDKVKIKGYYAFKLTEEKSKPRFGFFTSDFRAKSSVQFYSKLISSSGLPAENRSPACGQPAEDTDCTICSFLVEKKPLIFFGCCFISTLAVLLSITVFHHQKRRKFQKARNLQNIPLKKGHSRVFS

[4] = biological target: T1, FGFR1-KLB complex on T-Rex 293 cells (inducible human FGFR1βIIIC and constitutive murine KLB) (human | murine); test: radioligand binding; 2 ng/ml ^125I-FGF1 or ^125I-FGF19 on parental T-Rex 293 cells and cells expressing FGFR1-KLB, FGFR1, FGFR4-KLB, FGFR4 or KLB (30 ng/ml Tet induction); cell surface bound radioactivity by γ-counter; only the binder purified
[5] = biological target: T3, FGFR4-KLB complex on T-Rex 293 cells (inducible human FGFR4 and constitutive murine KLB) (human | murine) (UniProt P22455+Q99N32); test: as above
[6] = biological target: Human full-length FGFR1βIIIC on T-Rex 293 cells (without KLB) (human) (UniProt P11362); test: as above
[7] = biological target: T2, Murine betaKlotho (KLB) on T-Rex 293 cells (without transfected FGFR) (murine); test: as above
[8] = biological target: T1, FGFR1-KLB complex on T-Rex 293 cells (inducible human FGFR1βIIIC and constitutive murine KLB) (human | murine); test: radioligand binding; competition at one concentration: unlabeled FGF21, FGF19 or FGF1 at 1 µg/ml (text: FGF1 at 100 ng/ml) with 2 ng/ml ^125I-FGF19 on T-Rex 293 cells expressing FGFR1-KLB, FGFR1, FGFR4-KLB, FGFR4 or KLB; only the binder purified
[9] = biological target: T3, FGFR4-KLB complex on T-Rex 293 cells (inducible human FGFR4 and constitutive murine KLB) (human | murine); test: as above
[10] = biological target: Human full-length FGFR4 on T-Rex 293 cells (without KLB) (human) (UniProt P22455); test: as above
[11] = biological target: T2, Murine betaKlotho (KLB) on T-Rex 293 cells (without transfected FGFR) (murine); test: as above

binding [1]: binds
binding [2]: binds weakly
binding [3]: binds
binding [4]: binds
binding [5]: binds
binding [6]: no binding (tested: 2 ng/ml)
binding [7]: binds
binding [8]: binds
binding [9]: binds
binding [10]: binds weakly
binding [11]: binds
Substance: Human FGF19 with 6×His tag at the N-terminus (from UniProt O95750 25-216) (ligand)
